Measurements reported in the supplement of paper PMC4967469.
Lines with a small IC50 respond at low doses; where the fit passes the top or lowest dose, that dose stands as a limit. AUC is the area under the same curve over the 256-fold range up to the top dose, as a fraction: 1 means no effect, lower means more sensitive. For some of these results: The top dose, if marked as inferred, was calculated from the reported fits.

Key:
Assay in all cases: Viability of human cancer cell lines after 72 h of drug (GDSC screen)
JNK Inhibitor VIII = compound: CCOc1nc(NC(=O)Cc2cc(OC)ccc2OC)cc(N)c1C#N [JNK Inhibitor VIII]; conditions: top dose 10 µM; top dose inferred
Procedure: (§1)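 Human cancer cell lines in 384-well plates, medium with 10% serum, drug for 72 h over a 256-fold dose range (nine 2-fold or five 4-fold steps up to the top dose). Adherent lines were fixed and stained with the nucleic acid dye Syto60, suspension lines read with resazurin; signal relative to control wells, capped at 0 and 100%. One two-parameter sigmoid per drug and line, fitted in a mixed model over all curves with the slope shared within a line.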

CGP-60474 = compound: OCCCNc1cc(-c2ccnc(Nc3cccc(Cl)c3)n2)ccn1 [CGP-60474]; conditions: top dose 0.256 µM; top dose inferred
Procedure: as §1

SB-715992 = compound: Cc1ccc(C(=O)N(CCCN)[C@@H](c2nc3cc(Cl)ccc3c(=O)n2Cc2ccccc2)C(C)C)cc1 [SB-715992]; conditions: top dose 0.128 µM; top dose inferred
Procedure: as §1

JNJ-26854165 = compound: c1ccc2c(CCNc3ccc(Nc4ccncc4)cc3)c[nH]c2c1 [JNJ-26854165]; conditions: top dose 10 µM
Procedure: as §1

Cyclopamine = compound: CC1=C2C[C@H]3[C@@H](CC=C4C[C@@H](O)CC[C@@]43C)[C@@H]2CC[C@]12O[C@@H]1C[C@H](C)CN[C@H]1[C@H]2C [Cyclopamine]; conditions: top dose 16 µM; top dose inferred
Procedure: as §1

Docetaxel = compound: CC(=O)O[C@@]12CO[C@@H]1C[C@H](O)[C@@]1(C)C(=O)[C@H](O)C3=C(C)[C@@H](OC(=O)[C@H](O)[C@@H](NC(=O)OC(C)(C)C)c4ccccc4)C[C@@](O)([C@@H](OC(=O)c4ccccc4)[C@H]21)C3(C)C [Docetaxel]; conditions: top dose 0.0125 µM
Procedure: as §1

AMG-706 = compound: CC1(C)CNc2cc(NC(=O)c3cccnc3NCc3ccncc3)ccc21 [AMG-706]; conditions: top dose 2 µM; top dose inferred
Procedure: as §1

Belinostat = compound: O=C(/C=C/c1cccc(S(=O)(=O)Nc2ccccc2)c1)NO [Belinostat]; conditions: top dose 20 µM; top dose inferred
Procedure: as §1

NSC-207895 = compound: CN1CCN(c2ccc([N+](=O)[O-])c3no[n+]([O-])c23)CC1 [NSC-207895]; conditions: top dose 20 µM; top dose inferred
Procedure: as §1

FTI-277 = compound: COC(=O)[C@H](CCSC)NC(=O)c1ccc(NC[C@@H](N)CS)cc1-c1ccccc1 [FTI-277]; conditions: top dose 1.024 µM; top dose inferred
Procedure: as §1

YM155 = compound: COCC[n+]1c2c(n(Cc3cnccn3)c1C)C(=O)c1ccccc1C2=O [YM155]; conditions: top dose 5.12 µM
Procedure: as §1

OSI-906 = compound: C[C@]1(O)C[C@@H](c2nc(-c3ccc4ccc(-c5ccccc5)nc4c3)c3c(N)nccn32)C1 [OSI-906]; conditions: top dose 2.56 µM; top dose inferred
Procedure: as §1

| Cell Line | AUC (JNK Inhibitor VIII) | IC50 (JNK Inhibitor VIII) [µM] | AUC (CGP-60474) | IC50 (CGP-60474) [µM] | AUC (SB-715992) | IC50 (SB-715992) [µM] | AUC (JNJ-26854165) | IC50 (JNJ-26854165) [µM] | AUC (Cyclopamine) | IC50 (Cyclopamine) [µM] | AUC (Docetaxel) | IC50 (Docetaxel) [µM] | AUC (AMG-706) | IC50 (AMG-706) [µM] | AUC (Belinostat) | IC50 (Belinostat) [µM] | AUC (NSC-207895) | IC50 (NSC-207895) [µM] | AUC (FTI-277) | IC50 (FTI-277) [µM] | AUC (YM155) | IC50 (YM155) [µM] | AUC (OSI-906) | IC50 (OSI-906) [µM] |
| --- | --- | --- | --- | --- | --- | --- | --- | --- | --- | --- | --- | --- | --- | --- | --- | --- | --- | --- | --- | --- | --- | --- | --- | --- |
| CA46 (Burkitt lymphoma, suspension) | 0.985 | > 10 | 0.922 | > 0.256 | 0.632 | 0.0191 | 0.963 | > 10 | 0.935 | > 16 | 0.947 | > 0.0125 | 0.984 | > 2 | 0.075 | < 0.0781 | 0.824 | 13.1 | 0.978 | > 1.02 | 0.032 | < 0.02 | 0.934 | > 2.56 |
| DMS-114 (small cell lung carcinoma, adherent) | 0.982 | > 10 | 0.906 | > 0.256 | 0.981 | > 0.128 | 0.944 | > 10 | 0.98 | > 16 | 0.793 | 0.00668 | 0.969 | > 2 | 0.669 | 3.99 | 0.976 | > 20 | 0.982 | > 1.02 | 0.041 | < 0.02 | 0.972 | > 2.56 |
| KP-N-YN (neuroblastoma, adherent) | 0.949 | > 10 | 0.896 | > 0.256 | 0.965 | > 0.128 |  |  | 0.986 | > 16 | 0.926 | > 0.0125 | 0.944 | > 2 | 0.397 | 0.632 | 0.77 | 8.36 | 0.982 | > 1.02 | 0.038 | < 0.02 | 0.928 | > 2.56 |
| LOUCY (T-cell lymphoblastic leukaemia, suspension) | 0.991 | > 10 | 0.721 | 0.0587 | 0.518 | 0.00889 | 0.914 | > 10 | 0.99 | > 16 | 0.877 | 0.00869 | 0.992 | > 2 | 0.092 | 0.0837 | 0.908 | 18.8 | 0.977 | > 1.02 | 0.324 | 0.115 | 0.986 | > 2.56 |
| LP-1 (myeloma, suspension) | 0.975 | > 10 | 0.711 | 0.0558 | 0.713 | 0.0283 | 0.99 | > 10 | 0.971 | > 16 | 0.992 | > 0.0125 | 0.991 | > 2 | 0.308 | 0.405 | 0.833 | 9.94 | 0.993 | > 1.02 | 0.025 | < 0.02 | 0.833 | 1.27 |
